According to PubChem BioAssay AID924 (National Center for Advancing Translational Sciences (NCATS), 2007):
Where “and” joins values, the source holds several entries; their conditions need not be identical. Equal values may be shown once. About 1,200 (0.92%) of roughly 130,000 compounds were called active. This list was built around the results that the source calls inconclusive (neither active nor inactive); the mix of calls is not that of the screen. Calls come from the whole dose curve; as a rule, active = well fitted cell-killing curve with a large enough effect; inconclusive = small, poorly fitted or top-dose-only effect; inactive = no such curve, though single readings can be large or run the other way. Where the call is inconclusive, the potency comes from a doubtful curve fit.
Potency is the fitted concentration of half-maximal effect; tags give direction and shape of the fitted curve.

Assay: qHTS Screen for Compounds that Selectively Target Cancer Cells with p53 Mutations: Cytotoxicity of p53ts Cells at the Permissive Temperature; note: nearly all actives have a fitted effect of over 55% in size;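 for activity change, negative = cytotoxicity: 0% = DMSO and -100% = full killing by reference compound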
Conditions: H1299-p53A138V at 32C, ATP luminescence viability, 24 h; activity change, negative = cytotoxicity: at 46.1 µM (top of the series)
Method in brief: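 Cells: H1299 p53ts (A138V), 600/well, pre-incubated 16–30 h at 37C. Cpd up to 46 uM, 24 h, 32C. Readout: ATPlite luminescence, 20 min RT. Normalization: DMSO vs tamoxifen 100 uM. AC50 by Hill equation.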
With `O=C(Nc1ccccc1)N1CCC(c2ccccc2)C1` (centres undefined) the Potency was inconclusive: 10 µM [cytotoxic, partial curve]. With `O=c1c(-c2cc(F)cc(F)c2)nc2cnc(N3CCNCC3)nc2n1Cc1ccc(F)cc1` the Potency was inconclusive: 25.1 µM [cytotoxic, single point]. With `O=c1c(-c2cccc(Cl)c2)nc2cncnc2n1Cc1ccccc1Cl` the “activity change, negative = cytotoxicity” value was inactive: -6.72%. For `O=C(CSc1nnc2ccc3ccccc3n12)c1ccc(F)cc1`, the Potency was inconclusive: 31.6 µM [cytotoxic, single point]. In the case of `Cc1ccc(C(=O)Nc2onc3c2CCCC3)cc1`, the Potency is reported as active: 3.98 µM. In the case of `Cc1nc2sc(C(N)=O)c(N)c2c(-c2ccc(Br)cc2)c1C(=O)Nc1ccc(Cl)cc1`, the Potency is reported as inconclusive: 31.6 µM [cytotoxic, single point]. In the case of `Cc1ccccc1C(=O)Nc1ccc2c(c1)CCCN2C(=O)c1cccs1`, the Potency is reported as inconclusive: 3.98 µM [cytotoxic, full curve]. In the case of `Cc1ccc(-n2ncc3c(Nc4ccccc4C)ncnc32)cc1`, the Potency is reported as inconclusive: 10 µM [cytotoxic, partial curve]. With `O=C1c2[nH]nc(-c3ccc(Br)cc3)c2C(c2cccc(O)c2)N1c1ccc(Cl)cc1` (centres undefined) the Potency was inconclusive: 31.6 µM [cytotoxic, single point]. For `C=CCn1c(-c2ccc(OC)cc2)nc2ccccc21`, the Potency was active: 15.8 µM. In the case of `COc1ccc2oc(C(=O)OCC(=O)c3ccc4c(c3)OCCO4)c(C)c2c1`, the “activity change, negative = cytotoxicity” value is reported as inactive: 0.173%. With `CCOc1ccc(OCC)c(NC(=O)CCC(=O)N2CCOc3ccccc32)c1` the Potency was inconclusive: 31.6 µM [cytotoxic, single point]. In the case of `Cc1ccc2oc(-c3cc(NC(=O)c4ccco4)ccc3Cl)nc2c1`, the Potency is reported as inconclusive: 25.1 µM [cytotoxic, single point]. For `Cc1ccc(-c2nc3nc(C)cc(Nc4ccccc4O)n3n2)cc1`, the Potency was inconclusive: 14.1 µM [cytotoxic, single point]. In the case of `Clc1ccc(-c2nnc(-c3ccco3)o2)cc1`, the Potency is reported as inconclusive: 0.0794 µM [cytotoxic, full curve, poor fit]. In the case of `CCn1c2ccccc2c2cc(NC(=O)COc3cccc(C)c3)ccc21`, the Potency is reported as inconclusive: 31.6 µM [cytotoxic, single point]. For `Cc1cccc(NC(=O)Cn2c(=O)nc(-c3ccccc3)c3ccccc32)c1C`, the “activity change, negative = cytotoxicity” value was inactive: 2.43%. With `COC(=O)C1=C(C)N(Cc2ccccc2)C2=C(C(C)=O)C(c3ccccc3)[C@@](O)(C(=O)OC)C(=O)N2C1c1ccccc1` (some centres undefined) the activity change, negative = cytotoxicity was inactive: -4.77% [at 9.22 µM] and inactive: -1.3% [at 9.22 µM]. For `CCc1ccc(NC(=O)Nc2cccs2)cc1`, the Potency was inconclusive: 10 µM [cytotoxic, partial curve]. For `COc1ccc2c(c1OC)C(=O)N(c1cccc(C(F)(F)F)c1)C2`, the Potency was inconclusive: 12.6 µM [cytotoxic, partial curve]. In the case of `N=c1n(CCN2CCCCC2)c2ccccc2n1CC(O)COc1ccc(Cl)cc1Cl` (centres undefined), the Potency is reported as active: 22.4 µM. With `O=C(Nc1ccc2nc(-c3cccs3)[nH]c2c1)c1cccs1` the Potency was inconclusive: 15.8 µM [cytotoxic, partial curve]. In the case of `COc1cccc(-c2nc(CS(=O)(=O)CC(=O)Nc3c(C)cc(C)cc3C)c(C)o2)c1`, the Potency is reported as inconclusive: 31.6 µM [cytotoxic, single point]. In the case of `CN(C)c1cc(O)c(C(=S)Nc2ccccc2)c(N(C)C)c1`, the “activity change, negative = cytotoxicity” value is reported as inactive: -6.29%. For `CCOc1ccc(-c2nc(-c3cccnc3)no2)cc1`, the Potency was inconclusive: 3.16 µM [cytotoxic, partial curve]. For `CC(C)CC(=O)Nc1ccc(C(=O)OCc2cc(=O)n3nc(C(C)C)sc3n2)cc1`, the “activity change, negative = cytotoxicity” value was inactive: 1.48%. In the case of `CCCCOc1ccc(CNC(=O)C2CCN(c3nnc(-n4cccc4CNc4ccc(C)cc4)s3)CC2)cc1`, the Potency is reported as inconclusive: 7.94 µM [cytotoxic, partial curve]. In the case of `Cc1ccc(-c2nc3cc(C(C)C)ccc3o2)cc1NC(=O)c1cccs1`, the Potency is reported as inconclusive: 10 µM [cytotoxic, partial curve]. For `Cc1cccc(NC(=O)CSc2nc3ccc(NC(=O)c4ccco4)cc3s2)c1`, the Potency was inconclusive: 25.1 µM [cytotoxic, single point]. For `O=C1Nc2c(Br)cc(Br)cc2C1(O)N1CCOCC1` (centres undefined), the Potency was active: 12.6 µM. In the case of `CCCN1C=CC(=C2C(=O)c3ccccc3C2=O)C=C1`, the Potency is reported as active: 0.199 µM. With `CCOC(=O)C1=C(CS(=O)(=O)c2c(C)cc(C)cc2C)NC(=O)NC1c1cccc(OC)c1` (centres undefined) the “activity change, negative = cytotoxicity” value was inactive: 8%. With `Cc1cc[n+](-c2[nH]c(=O)sc2/C=N/NC([S-])=Nc2ccccc2)cc1C` the Potency was inconclusive: 0.0178 µM [cytotoxic, full curve, poor fit]. In the case of `CC(C)c1ccc(NC(=O)c2csnn2)cc1`, the Potency is reported as active: 12.6 µM. With `CCc1ccc2oc(-c3cc(N)ccc3O)nc2c1` the Potency was active: 12.6 µM. With `Cc1ccc(N2C(=O)c3[nH]nc(-c4ccc(Cl)cc4)c3C2c2ccc(F)cc2)cc1` (centres undefined) the Potency was inconclusive: 31.6 µM [cytotoxic, single point]. For `CCOc1ccc(/C=C\C(C)=N\O)cc1`, the Potency was inconclusive: 10 µM [cytotoxic, partial curve]. With `O=C(Nc1nc2ccc(F)cc2s1)c1nc(S(=O)(=O)Cc2ccccc2)ncc1Cl` the Potency was inconclusive: 25.1 µM [cytotoxic, single point]. In the case of `CC(C)(C)OC(=O)C1=NOC2(C=CC(=O)C=C2)C1`, the Potency is reported as inconclusive: 3.16 µM [cytotoxic, single point]. With `Nc1ccc2ncccc2c1` the Potency was inconclusive: 31.6 µM [cytotoxic, single point]. In the case of `CNC(=S)N/N=C/c1ccc(OCC(=O)Nc2c(C)cc(C)cc2C)c(OC)c1`, the Potency is reported as inconclusive: 0.0089 µM [cytotoxic, full curve, poor fit]. With `S=c1nc[nH]c2nc[nH]c12` the Potency was inconclusive: 10 µM [cytotoxic, partial curve]. In the case of `COc1ccc(-c2cc(C(=O)NCc3ccc(F)cc3)c3c(-c4ccc(F)cc4)[nH]nc3n2)cc1OC`, the Potency is reported as inconclusive: 15.8 µM [cytotoxic, single point]. In the case of `c1ccc(-c2ccc(-c3nc(-c4cccnc4)no3)cc2)cc1`, the Potency is reported as inconclusive: 10 µM [cytotoxic, partial curve].
